The results in this text go back to US9284335B2, “Substituted pyrido[3,2-e][1,2,4]triazolo[1,5-c]pyrimidines, pyrido[2,3-e][1,2,4]triazolo[1,5-c]pyrimidines and/or [1,2,4]triazolo[1,5-c]pteridines for treatment of central nervous system diseases and disorders” (DART NEUROSCIENCE (CAYMAN) LTD., priority 2012, dated 2016).

Bounds are passed on as bounds.

The assay deals with full-length recombinant NH-terminal GST tagged human PDE1b enzyme (Homo sapiens, UniProt Q01064). As to the kind of experiment: PDE1b inhibitory assay (IMAP TR-FRET). The format is biochemical. The note with it: negative log of half-maximal molar inhibitory concentration; FAM-cAMP 200 nM; reported as bins; read-out: PDE1b (pEC50) (converted). On the technique in general: In TR-FRET formats the signal depends on donor and acceptor labels being close together.

Consider `COc1ccc(Cn2c(=O)n3ncnc3c3cc(CN4CC5CCC(C4)O5)cnc32)cc1` [Example 43, 9-(8-Oxa-3-azabicyclo[3.2.1]octan-3-ylmethyl)-6-(4-methoxybenzyl)pyrido[3,2-e][1,2,4]triazolo[1,5-c]pyrimidin-5(6H)-one], for which the EC50 was 100 to 1000 nM.

With `Cc1ccccc1Cn1c(=O)n2ncnc2c2cc(CN3C[C@@H](C)O[C@@H](C)C3)cnc21` [Example 99, 9-(((2S,6R)-2,6-Dimethylmorpholino)methyl)-6-(2-methylbenzyl)pyrido[3,2-e][1,2,4]triazolo[1,5-c]pyrimidin-5(6H)-one], the EC50 was 1000 to 10000 nM.

For the compound `COc1ccc(Cn2c(=O)n3ncnc3c3cc(CN4CCN(S(=O)(=O)N(C)C)CC4)cnc32)cc1` [Example 69, 4-((6-(4-Methoxybenzyl)-5-oxo-5,6-dihydropyrido[3,2-e][1,2,4]triazolo[1,5-c]pyrimidin-9-yl)methyl)-N,N-dimethylpiperazine-1-sulfonamide], the EC50 was < 100 nM.

Regarding `COc1ccc(Cn2c(=O)n3ncnc3c3nc(N(C)C4CCN(C)CC4)cnc32)cc1` [Example 11, 6-(4-Methoxybenzyl)-9-(methyl(1-methylpiperidin-4-yl)amino)-[1,2,4]triazolo[1,5-c]pteridin-5(6H)-one], the EC50 is 1000 to 10000 nM.

For the compound `COCCN1CCN(c2cnc3c(c2)c2ncnn2c(=O)n3Cc2ccc(OC)cc2)CC1` [Example 13, 6-(4-Methoxybenzyl)-9-(4-(2-methoxyethyl)piperazin-1-yl)pyrido[3,2-e][1,2,4]triazolo[1,5-c]pyrimidin-5(6H)-one], the EC50 was 100 to 1000 nM.

Turning to `COc1ccc(Cn2c(=O)n3ncnc3c3cc(CN4CCCOCC4)cnc32)c(F)c1F` [Example 167, 9-((1,4-Oxazepan-4-yl)methyl)-6-(2,3-difluoro-4-methoxybenzyl)pyrido[3,2-e][1,2,4]triazolo[1,5-c]pyrimidin-5(6H)-one], the EC50 was 100 to 1000 nM.

With `COc1ccc(Cn2c(=O)n3ncnc3c3cc(C(N4CCOCC4)C(F)(F)F)cnc32)cc1` (centres unmarked) [Example 88, 6-(4-Methoxybenzyl)-9-(2,2,2-trifluoro-1-morpholinoethyl)pyrido[3,2-e][1,2,4]triazolo[1,5-c]pyrimidin-5(6H)-one], the EC50 is < 100 nM.

`COc1ccc(Cn2c(=O)n3ncnc3c3cc(-c4cccnc4OC)cnc32)cc1` [Example 7, 6-(4-Methoxybenzyl)-9-(2-methoxypyridin-3-yl)pyrido[3,2-e][1,2,4]triazolo[1,5-c]pyrimidin-5(6H)-one]: the EC50 is < 100 nM.

For the compound `COCCN1CCN(Cc2cnc3c(c2)c2ncnn2c(=O)n3Cc2ccc(OC)cc2)CC1` [Example 54, 6-(4-Methoxybenzyl)-9-((4-(2-methoxyethyl)piperazin-1-yl)methyl)pyrido[3,2-e][1,2,4]triazolo[1,5-c]pyrimidin-5(6H)-one], the EC50 was 1000 to 10000 nM.

Consider `COc1ccc(Cn2c(=O)n3ncnc3c3ncc(CN4CCOCC4)cc32)cc1` [Example 57, 6-(4-Methoxybenzyl)-8-(morpholinomethyl)pyrido[2,3-e][1,2,4]triazolo[1,5-c]pyrimidin-5(6H)-one], for which the EC50 was 1000 to 10000 nM.

As for `C[C@@H]1CN(Cc2cnc3c(c2)c2ncnn2c(=O)n3Cc2ccc(F)cc2F)C[C@H](C)O1` [Example 135], the EC50 is 100 to 1000 nM.

As for `C[C@@H]1CN(Cc2cnc3c(c2)c2ncnn2c(=O)n3Cc2ccc(C(F)(F)F)cc2)C[C@H](C)O1` [Example 136], the EC50 was 1000 to 10000 nM.

Consider `C[C@@H]1CN(Cc2cnc3c(c2)c2ncnn2c(=O)n3Cc2ccc(F)c(Cl)c2)C[C@H](C)O1` [Example 110], for which the EC50 is 100 to 1000 nM.

Turning to `COc1ccc(Cn2c(=O)n3ncnc3c3cc(N(C)CCCN(C)C)cnc32)cc1` [Example 18, 9-((3-(Dimethylamino)propyl)(methyl)amino)-6-(4-methoxybenzyl)pyrido[3,2-e][1,2,4]triazolo[1,5-c]pyrimidin-5(6H)-one], the EC50 was 1000 to 10000 nM.
